SMILES strings stand for the structures. Out of some 150,000 compounds screened, about 540 (0.36%) showed an effect of 50% or more. The list shows a part of the results.

By % Inhibition is commonly meant the relative decrease from the control value, in per cent.

The test concerns Plasmodium falciparum. Put plainly: Primary screen in NF54 nanoGlo assay, in single point, at 2uM, 72h; a lower Z score goes with more inhibition. It counts as functional, Erythrocyte. Conditions: timepoint 72 hour.
Take `CCCS(=O)(=O)Nc1cccc(NCc2cccc3[nH]ccc23)c1`: the “% Inhibition” value is given as -2% and the Z score is 0.33.
The like results for `CN(C)C1CCCN(c2cc(NC3CCCOC3)ncn2)C1` (configuration not stated) were, in that order, -14% and 2.06.
Consider `N#Cc1c(-c2cccc3cnccc23)cc(-c2ccc[nH]2)nc1N`, for which the “% Inhibition” value is given as -15% and the Z score is 2.3.
`N#Cc1ccnc(-c2ccc(C(=O)N(CCO)C3CCCCC3)cc2)c1`: the “% Inhibition” value is -8% and the Z score came to 1.43.
On to `c1ccc(-c2cc(-c3c(N4CCCC4)nc4ccccc4c3-c3ccccc3)nc3ccccc23)cc1`, for which the “% Inhibition” value is -15% and the Z score turned out to be 2.34.
As for `CCN1CCN(C2CCN(C(=O)C(Cc3c[nH]c4cc(F)ccc34)NC(C)=O)C2)CC1` (configuration not stated), the “% Inhibition” value worked out at 1% and the Z score is -0.23.
As to `CN1CCN(c2ccc(-c3cccc(C(=O)N4CC[C@H](N)C4)c3)nn2)CC1`, the “% Inhibition” value is -5% and the Z score worked out at 0.84.
On to `Fc1cc(-c2ccc(OCCN3CCCC3)cc2)c2ncccc2c1`, for which the “% Inhibition” value came to 1% and the Z score is -0.2.
As to `COCCN(Cc1ccccc1Cl)C(=O)CCN1CCCCCC1=O`, the “% Inhibition” value was -17% and the Z score amounted to 2.92.
Consider `Cc1ccc(C2CC2C(=O)Nc2ncn(CC(=O)O)n2)cc1C` (configuration not stated), for which the “% Inhibition” value is on record as 6% and the Z score is -1.29.
The like results for `CC(C)n1ncc2cc(CNc3ccc4[nH]ncc4c3)cnc21` were, in that order, -9% and 1.52.
For the compound `O=C(NCc1ccncc1O[C@H]1CCNC1)c1c[nH]c2ncccc12`, the “% Inhibition” value is recorded as -5% and the Z score is 0.79.
On the same counts, the results for `Cc1nccn1-c1ccc([C@H](C)Nc2nc(N)c3cnn(C)c3n2)cc1` are -3% and 0.53.
The like results for `COCCN(Cc1nccs1)C(=O)C[C@H]1C(=O)N(C)C(=O)N1C` were, in that order, -3% and 0.54.
The like results for `CC(C)(NC(=O)c1ccc(-n2cnnc2)nc1)c1nnc(N)s1` were, in that order, -6% and 1.23.
For `Clc1ccc(CNc2cccc(Cn3cnnc3)c2)c2ncccc12`, the “% Inhibition” value is on record as 3% and the Z score was -0.53.
As for `C[C@@H](CNC(=O)N(CCc1ccccc1)Cc1cccnc1)N1CCOCC1`, the “% Inhibition” value was -3% and the Z score stood at 0.64.
The like results for `C[C@@H](c1cccnc1)N(C)Cc1cccc(OC2CCCC2)c1` were, in that order, 7% and -1.07.
Take `O=C(c1c[nH]c2ccccc12)N1CC(Cn2nc(-c3cccnc3)ccc2=O)C1`: the “% Inhibition” value is reported as -4% and the Z score amounted to 0.83.
On the same counts, the results for `Cc1c(C#N)c(-c2ccc([C@H](C)N3CCOCC3)cc2)c(C)n1C` are -8% and 1.49.
On the same counts, the results for `CC1CN(Cc2cccc(NC3CCN4CCCC4C3)c2)CC(C)O1` (configuration not stated) are -12% and 2.09.
The like results for `Cc1n[nH]c(C2CCN(C(=O)c3cc(N4CCOCC4)no3)CC2)n1` were, in that order, -3% and 0.58.
Turning to `c1cc(-c2nnc3ccc(NCc4ccn(C5CCCC5)n4)nn23)ccn1`, the “% Inhibition” value is given as -2% and the Z score came to 0.32.
On the same counts, the results for `O=C(Cc1ccc(N2CCNC2=O)cc1)N1CC[C@H](c2ccccc2F)C1` are -18% and 3.1.
Regarding `O=C(NC1CCN(c2cc(NCC3CC3)ncn2)CC1)c1ccoc1`, the “% Inhibition” value was found to be 7% and the Z score is listed as -1.2.
Take `CNC(=O)CCCNC(=O)N[C@@H](CCOC)COC`: the “% Inhibition” value is -7% and the Z score was found to be 1.26.
The like results for `Cc1cc(C(F)(F)F)nc(CCNc2nc(N)nc3c2CCNC3)n1` were, in that order, -7% and 1.08.
Regarding `COc1ccc2c(c1)c(CN1CCC[C@H](N(Cc3cccnc3)C(=O)C3CCC3)C1)cn2C`, the “% Inhibition” value amounted to 0% and the Z score came to 0.05.
As for `COCCN1CC[C@H](CN(C)Cc2ccccc2OCCCCN2CCCCC2)C1`, the “% Inhibition” value worked out at 6% and the Z score was -1.39.
As for `Cc1sc2nc(-c3ccccn3)nc(NCCc3nccn3C)c2c1-c1ccccc1`, the “% Inhibition” value was determined as 71% and the Z score was -14.01.
For `CNc1nc(N[C@H]2C[C@@H](c3cc(N4CCOCC4)ncn3)C2)ncc1F`, the “% Inhibition” value is recorded as -9% and the Z score stood at 1.61.
Consider `CC(C)[C@H](NC(=O)OCc1ccccc1)C(=O)N1CC=C(c2c[nH]c3cc(F)ccc23)CC1`, for which the “% Inhibition” value is listed as 0% and the Z score is -0.03.
`CC(O)CC1CCCN1C(=O)CC1(O)CCCCC1` (configuration not stated): the “% Inhibition” value is reported as -3% and the Z score came out at 0.48.
`O=C(CCCc1c[nH]c2ccccc12)N[C@H]1CCCN(Cc2cccc(O)c2)C1`: the “% Inhibition” value is -9% and the Z score was determined as 1.51.
In the case of `CN(Cc1cn[nH]c1-c1ccccc1)C[C@]1(O)CCCN2CCCC[C@@H]21`, the “% Inhibition” value is -8% and the Z score is recorded as 1.38.
As for `Cc1cc(Br)c2c(c1)C(c1c[nH]c3ccccc13)(c1c[nH]c3ccccc13)C(=O)N2C`, the “% Inhibition” value is -4% and the Z score is given as 0.72.
For `c1csc(-c2ccnc(N[C@H]3CO[C@H]4[C@@H]3OC[C@@H]4NCC3CCCCC3)n2)c1`, the “% Inhibition” value is given as -8% and the Z score was 1.22.
The like results for `N#Cc1ccccc1Oc1ccc(NC(=O)[C@H](Cc2c[nH]c3ccccc23)NC(N)=O)cc1` were, in that order, -4% and 0.87.
The like results for `O[C@@H](CNc1ncc(F)c(-c2ccsc2)n1)COCC1CC1` were, in that order, -8% and 1.17.
The like results for `CNc1nc(NCC[C@H]2CCCCN2C(C)C)ncc1F` were, in that order, -2% and 0.4.
For `Oc1ccc(Br)c(CNC2CCN(C3CC3)CC2)c1`, the “% Inhibition” value amounted to 12% and the Z score is listed as -2.22.

(Values after ChEMBL document CHEMBL5308541, “MAIP: An Open-Source Tool to Enrich High-Throughput Screening Output and Identify Novel, Druglike Molecules with Antimalarial Activity” (ACS Med Chem Lett, 2023).)
